# Reference: PubChem BioAssay AID463173 (ICCB-Longwood Screening Facility, Harvard Medical School, 2010)
# The whole screen tested about 52,000 compounds, of which about 4,300 (8.3%) were called active. Rule as the data show it: active = survival mostly below about 52% (no sharp cut-off); inactive = mostly above about 56%. This is one part of the list.
# Tested on: DeltatarO mutant
# Experiment: S. aureus survival, RN4220 and DeltatarO strains – OD600, teichoic acid synthesis inhibitors, primary screen (AID 463173)
# Settings: S. aureus RN4220 wild type/DeltatarO growth, OD600, 18 h, stronger effect = lower value, screened at 18.75 µg/mL (by protocol)
row,Compound,survival
1,CCc1nn(CC(=O)Nc2ccc(C)cc2C)c(=O)c2cc3sccc3n12,inactive: 83%
2,O=C(Nc1ccc(F)c(Cl)c1)C1Cc2ccccc2CN1S(=O)(=O)c1ccc(F)cc1 (configuration not stated),inactive: 58%
3,COc1cccc(NC(=O)CSc2nc3c([nH]c4ccccc43)c(=O)n2-c2cccc(Cl)c2)c1,inactive: 87%
4,Cc1ccc(Cn2ccn(Cc3cccc(C(F)(F)F)c3)c(=O)c2=O)cc1,inactive: 111%
5,CN(c1ccccc1)N1C(=O)c2cccc3cccc(c23)C1=O,inactive: 75%
6,O=C(CCC(=O)N1CCc2ccccc21)N1CCc2ccccc21,inactive: 84%
7,Cc1ccc(-c2ccc(=O)n(CC(=O)Nc3ccc(C(C)C)cc3)n2)cc1,inactive: 55%
8,CCOC(=O)c1ccc(NC(=O)CSc2nc(C)c(Cc3ccccc3)c(=O)[nH]2)cc1,active: 45%
9,N#C/C(=C\C1CC=CCC1)c1nc2ccccc2c(=O)[nH]1 (configuration not stated),inactive: 76%
10,C=CCOc1ccc(C2c3c(oc4ccc(C)cc4c3=O)C(=O)N2CCCN2CCOCC2)cc1 (configuration not stated),inactive: 73%
11,Cc1ccc(C2=NN(CC(=O)NC(C)c3ccccc3)C(=O)CC2)cc1 (configuration not stated),inactive: 71%
12,CCOC(=O)c1c(NC(=O)COc2cccc(C)c2C)sc2c1CCCCC2,inactive: 64%
13,CC(C)c1ccc(Nc2c(-c3ccc(N4CCOCC4)cc3)nc3ncccn23)cc1,inactive: 83%
14,COc1ccc(NC(=O)C2CCC(CNS(=O)(=O)c3csc(C(N)=O)c3)CC2)cc1 (configuration not stated),inactive: 82%
15,COc1ccc(Nc2ncnc3onc(-c4ccc(Cl)cc4)c23)cc1Cl,inactive: 132%
16,Cc1ccc(NC(=O)c2cn(-c3ccccc3)nc2-c2ccccc2)cc1,inactive: 98%
17,CCCCn1c(SCC(=O)Nc2cccc(OC)c2)nc2ccsc2c1=O,inactive: 134%
18,COc1cc(OC)c(NC(=O)c2cnn(-c3cccc(Cl)c3C)c2C2CCN(C(=O)OC(C)(C)C)CC2)cc1Cl,inactive: 66%
19,COc1ccc(-n2cc(-c3ccccc3)c3c(NCc4cccc(Cl)c4)ncnc32)cc1,inactive: 79%

row,Compound,survival
1,O=C(NCc1ccccc1)c1ccc(NC(=O)N2CCSc3ncccc32)cc1,inactive: 91%
2,O=S(=O)(c1ccc(Br)cc1)c1nc(-c2ccco2)oc1SCc1ccccc1F,active: 44%
3,CC(=O)c1cc(-c2ccc(F)cc2)n(CC(=O)NC2CCCCCC2)c1C,inactive: 74%
4,COc1cccc(CNS(=O)(=O)c2c(C)nc3scc(C)n3c2=O)c1,inactive: 141%
5,CCOc1ccc(CCNC(=O)CN2C(=O)c3cccnc3Oc3ccc(C)cc32)cc1OCC,inactive: 67%
6,COc1ccc(NC(=O)c2ccco2)cc1NC(=O)C(C)Oc1ccc(Cl)cc1Cl (configuration not stated),active: 28%
7,O=C(Nc1ccc(NC(=O)c2cccs2)cc1)c1cccs1,inactive: 99%
8,CCCOc1ccc(-c2cccc(NS(=O)(=O)c3cccs3)c2)nn1,inactive: 80%
9,O=C(Nc1cccc(C(F)(F)F)c1)c1cc2nc(-c3ccccc3)cc(C(F)(F)F)n2n1,inactive: 60%
10,COc1ccc(-c2onc(C)c2C)cc1S(=O)(=O)Nc1ccc(OC(F)(F)F)cc1,inactive: 88%
11,CCOC(=O)c1cccc(NC(=O)c2cc(S(=O)(=O)N3CCCC3)cn2C)c1,inactive: 71%
12,Cc1ccc(CSc2oc(-c3ccco3)nc2S(=O)(=O)c2ccc(Cl)cc2)cc1,inactive: 63%
13,CCOC(=O)CNC(=O)c1cc2c(=O)n(CC)c3ccccc3c2s1,inactive: 94%
14,CCCOC(=O)c1ccc(NC(=O)Cn2nnc3sc4c(c3c2=O)CCC(C(C)(C)C)C4)cc1 (configuration not stated),inactive: 69%
15,Cc1ccc(CNC(=O)CSc2ccc(-c3sc(-c4ccccc4)nc3C)nn2)cc1,inactive: 93%
16,CCCCN(CC)C(=O)c1c[nH]c2ccc(S(=O)(=O)Nc3cccc(OC)c3)cc2c1=O,inactive: 80%
17,COc1ccc(NC(=O)C2=C(C)Nc3c(C(=O)Nc4ccc(C)cc4)cnn3C2c2cccc(Cl)c2)cc1 (configuration not stated),inactive: 94%
18,COc1ccc(NC(=O)CC2Nc3cccc4cccc(c34)NC2=O)cc1 (configuration not stated),active: 41%
19,Cc1ccc2oc(-c3cccc(NC(=O)c4cccc5c(Br)cccc45)c3)nc2c1,inactive: 153%

row,Compound,survival
1,O=C(CCCn1c(=O)c2cccn2c2ccccc21)Nc1cccc(Cl)c1,active: 41%
2,Clc1ccccc1CSc1nncn2c1cc1occc12,inactive: 62%
3,CC(=O)N1c2ccccc2CC1C(=O)N1CCN(c2cccc(C)c2C)CC1 (configuration not stated),inactive: 99%
4,Cc1oc2ccc(O)c(CN3CCOCC3)c2c1C(=O)Nc1ccc(C(C)C)cc1,inactive: 91%
5,CCOc1ccccc1CNC(=O)CCCn1c(=O)c2cccn2c2cccnc21,inactive: 102%
6,Clc1ccc(N2CCN(Cc3nnc(-c4ccc5c(c4)OCO5)o3)CC2)cc1,inactive: 91%
7,CCN1/C(=C(\C#N)c2nc(C#N)c(C#N)nc2N2CCOCC2)Nc2ccccc21,inactive: 104%
8,COc1ccc(-c2cccc(NS(=O)(=O)c3cccs3)c2)nn1,inactive: 73%
9,Cc1cccn2c(=O)cc(COc3cccc(NC(=O)COc4ccccc4)c3)nc12,inactive: 73%
10,COc1cccc(-c2nc3c(c(SCC(=O)Nc4cc(C)ccc4C)n2)Cc2c(CO)cnc(C)c2O3)c1,inactive: 77%
11,CC(=O)c1ccc(NC(=O)CCc2nc(-c3ccc(C)cc3)no2)cc1,inactive: 67%
12,COc1ccc(Nc2cc(C(=O)NCCCN(C)Cc3ccccc3)c3ccccc3n2)cc1,inactive: 109%
13,CCOC(=O)c1ccc(NC(=O)CC2C(=O)N(c3ccc(F)cc3)C(=O)N2Cc2ccc(C)cc2)cc1 (configuration not stated),inactive: 54%
14,COc1ccc(C(=O)Nc2ccccc2-c2nc3ccccc3s2)c(OC)c1,inactive: 102%
15,O=C(CSC1CC(=O)N(c2ccccc2)C1=O)Nc1ccc(F)cc1 (configuration not stated),inactive: 90%
16,CCOc1cc(C2Sc3ccccc3NC3=C2C(=O)c2ccccc23)ccc1O (configuration not stated),inactive: 48%
17,CCOC(=O)c1cnc2ccc(Cl)cc2c1Nc1ccc(OCC)cc1,active: -5%
18,CN1C(=O)CC(NCc2ccc(S(N)(=O)=O)cc2)C1=O (configuration not stated),inactive: 97%
19,Cc1ccc(-c2noc(C3CCN(C(=O)Nc4ccc(C#N)cc4)CC3)n2)o1,inactive: 93%
